In the supplement of paper PMC3334620:
Whole data set: some 33,000 sequences, median “E-score (-0.5 to 0.5)” near -0.036, cut for the highest 2% near 0.37. The list shows a part of the results.

Target: T1, Yer064c (UniProt P40041)
T1 sequence: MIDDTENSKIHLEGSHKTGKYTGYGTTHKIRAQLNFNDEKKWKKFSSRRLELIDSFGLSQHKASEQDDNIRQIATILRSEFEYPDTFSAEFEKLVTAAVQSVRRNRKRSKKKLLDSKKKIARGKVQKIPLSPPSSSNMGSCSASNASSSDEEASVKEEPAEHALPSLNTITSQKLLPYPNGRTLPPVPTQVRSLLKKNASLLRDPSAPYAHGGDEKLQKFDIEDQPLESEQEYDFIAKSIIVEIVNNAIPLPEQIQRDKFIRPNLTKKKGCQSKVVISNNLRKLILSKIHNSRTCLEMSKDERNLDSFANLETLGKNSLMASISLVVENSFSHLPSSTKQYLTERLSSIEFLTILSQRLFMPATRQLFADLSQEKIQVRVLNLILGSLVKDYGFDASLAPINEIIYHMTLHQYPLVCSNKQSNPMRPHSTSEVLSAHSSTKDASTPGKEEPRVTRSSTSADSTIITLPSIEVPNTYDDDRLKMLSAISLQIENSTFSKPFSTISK
Assay: PBM E-score (8-mer binding enrichment) (E-score (-0.5 to 0.5)); higher = stronger / more preferred TF binding; most listed sequences are background and not binding sites
Details: protein concentration: 200 nM; construct: GST-full length
Procedure: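 Universal 'all 10-mer' protein binding microarrays (Agilent AMADID 015681) probed with GST-tagged S. cerevisiae TFs (full-length or DBD) made by in vitro transcription/translation (PURExpress), about 100-200 nM. Bound TF was detected with fluorescent anti-GST. Each ungapped 8-mer (which stands for itself and its reverse complement) is scored by the PBM enrichment score (E-score), a modified Wilcoxon-Mann-Whitney statistic from -0.5 to +0.5, computed with the Universal PBM Analysis Suite. Scale: above 0.35 generally sequence-specific binding.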

Sequence	PBM E-score
AGGGACCT	-0.293
ATGATCTG	0.148
CGCTGTGC	-0.183
CGACAAGC	-0.374
CAACATCC	-0.266
CCGGGAGC	-0.0914
AGGCTGAG	-0.0227
CCAAAGTA	0.0323
GAAGTTAA	-0.0823
ACATCAAT	0.111
CAAACCAC	-0.123
CCACCAAG	-0.137
AAACCCAG	-0.16
ACATCAAC	0.0386
AATAACAC	-0.207
GACCAAGC	-0.107
ATCAATGC	-0.193
AACATCCA	-0.155
GGACAAAC	0.0677
GAAAAGGA	-0.166
ATAGCCAG	-0.0249
CCTGATCG	-0.0675
AAATTGAT	0.061
ATTTGTGA	0.163
GAGCTAAA	-0.135

Sequence	PBM E-score
TCCTGCCA	-0.174
ACCTCCAA	0.0762
ATGGAAAA	-0.135
ACGGGTCA	-0.12
AAAGCTTT	0.123
AGTACGGA	0.0676
ACTCAGAC	0.284
ATAGTCTC	0.346
AAAACAGT	0.137
ACAGCCCG	-0.195
ACGCCTTG	-0.152
AGTCTGAA	0.231
CTGATGGA	-0.00528
AGAGAGAA	-0.00421
AAAAGGCC	0.0115
CCGGCTGC	-0.221
CAATAAAA	0.211
AATCTCTG	0.0789
AGAGGAAA	-0.0405
CTGTAGAA	-0.164
GAGTCAGA	0.472
AGTGTTAA	0.0615
CCAATTAA	0.0698
AAAAACGG	-0.229
AACTCCGA	-0.0453

Sequence	PBM E-score
ACTAACAG	0.258
ACACAGAG	0.0141
CCGTTATA	-0.127
ATGCATTA	0.0181
GATAGCAA	0.137
AGGACAAT	-0.0238
ACTGAGCC	0.259
CAGAGAGA	0.057
AAATCCAA	-0.115
GAAGGAGA	-0.0083
ATAACTGG	-0.0408
CTAGCAAG	-0.0416
CAAACCTG	0.0192
GGAGAACA	-0.295
GGTAAAAC	0.0215
ACAATCCG	-0.0699
CTGAGCGA	0.15
AGGGCGCA	-0.31
GAGGCCTA	-0.266
ATGGAGGA	-0.0155
CAGGGTCA	-0.0895
CACGTATC	-0.112
CAAGGTGG	-0.216
CACAACGA	0.151
CCTTGTGA	0.122

Sequence	PBM E-score
CGCTGCCC	-0.166
CGGTTTCA	-0.117
AGAAATTC	-0.117
AGCTAAGG	-0.317
ACCACCAC	-0.0314
AAATCGCA	-0.0346
CAGTGCCG	-0.102
GCAGATTA	0.172
CGGGGTAG	-0.0971
AATTATTC	0.0745
ATACGGCA	-0.154
ACGTGTAT	0.00231
AACACTAG	-0.0103
CCGCGCTA	0.00301
CTAGATAA	0.13
AATTGCAT	-0.00375
ATCCTCTG	-0.14
ATGGCCCC	-0.424
GCGATACA	0.0513
CGAAGTAA	0.029
ACATCTGA	0.0672
ATATCAAT	0.101
CAGAATTA	-0.0545
CAGTGGCA	-0.215
AGGGATGA	0.126

Sequence	PBM E-score
GAGGAAGA	-0.108
CAGCAAGG	-0.047
ACAAATGT	-0.0243
GTTCCATA	-0.205
CACCTACG	0.0159
AGCTGCAT	-0.204
TTCCAAAA	0.0767
CGCGGGTA	0.0646
AACGACTG	0.133
ATACTAGA	0.111
AGTAGGAT	0.044
AAATTTCC	-0.0423
ATGAGTTA	0.288
CATTGTCA	0.0033
GACTTCTC	0.231
CGAAAGCA	-0.111
AGGTAGAC	-0.0676
ATAGGGTC	0.0568
CAACGTGG	-0.0771
ACCATTAC	0.0626
CCAACCCC	-0.111
TGCACCCA	0.0356
TATATCGA	-0.0135
GAGCGGAC	-0.144
ATTCACTA	0.245

Sequence	PBM E-score
CCAGGACC	-0.253
GTGTACCA	-0.105
GATGTGGC	-0.136
CTCGCGTA	-0.00856
GCGTCCCA	-0.214
AAAGCCCT	-0.0999
TAGTATAA	0.116
CGTAAGAC	0.263
ATCTGGGG	-0.125
TACGCAGA	0.1
TGAAACAA	0.0181
AACCTCCG	-0.0192
GGACAACC	-0.249
CGAGGCCC	-0.351
CCCTGAGA	-0.0811
ATCCATGC	-0.181
CCAACGTA	-0.106
AAGATCCG	-0.234
GGTTTAGA	-0.00087
ACTGTGCC	0.092
CTAACGAC	0.0878
ACAGAGAC	0.0153
AGGACTGA	0.244
AGTCATTA	0.487
CGCTAAGC	0.0419

Sequence	PBM E-score
ACACTCGC	0.111
GTAGGTCA	-0.115
CGGTGGTA	-0.0749
GAGGCAGC	-0.206
GCCAATCA	0.124
GACATCCA	-0.27
GAGTTGGA	0.0164
GGGGGAAC	-0.295
CATATCGC	-0.0171
ACCTGCAC	-0.0242
GGTTACAC	-0.0467
GAAATTGC	-0.232
CCCGAGAC	-0.0215
AAACCACG	-0.152
ATTTGACG	-0.0958
CCTCCCTC	-0.186
GCAACTCC	-0.278
GAACCCAA	-0.00777
ATCAGATG	0.0687
GGATCTCA	-0.162
AATGCGGC	-0.244
CGTGATAC	-0.131
GTATGGGA	-0.288
GCGCGAAC	-0.102
ATTGTGCC	-0.0362

Sequence	PBM E-score
CAAAGTCG	0.167
AGTGGTAG	-0.149
ATGGTAGG	-0.0528
ACCGAAAC	-0.109
TCCAACGA	0.173
CAGTACGA	0.0701
CTAGATTA	0.265
CTTAGGGC	-0.108
CTACGCCC	-0.0516
CTATAAAC	0.0724
AACGGGAT	-0.185
TAGTTCGA	-0.126
ACCCTTTG	-0.176
CCACCAGG	-0.174
AGTAGGGC	-0.154
CGTTTTAC	0.0584
GTGAGTAA	0.331
ACGTCGCC	-0.299
GTCCTAAA	0.119
ACCGGGGG	-0.236
ATTGATTA	0.286
GTATAATA	0.125
ATTAAATC	0.262
GTGTACAC	-0.0474
TACAGGCA	-0.102

Sequence	PBM E-score
AGGGCATA	0.068
CGTGTTAC	0.133
ACCCAGCT	-0.215
AGATCATG	0.104
ACGCCGGG	-0.255
AGCCAGAG	0.108
GACGTAGA	-0.173
CAATGTAG	-0.0784
AGGTCACC	0.00721
AATAATAC	0.0338
AAGTGCAC	-0.0148
CCTGTCTC	0.112
ACACGCTA	-0.0441
GCGACTTA	0.266
CTCCGTAC	-0.0196
CGATAAAG	-0.0425
AGTCATGA	0.485
TATCAGGA	0.105
ACAGGTAC	-0.154
AACGCGCC	-0.172
AAATAGTT	-0.0372
CAAACATC	0.0712
CCCATTGC	-0.0354
GCGGACGC	-0.125
CTCGACTC	0.34

Sequence	PBM E-score
ACCTACAA	-0.049
ATGGTAAG	-0.0135
GAAATTCC	-0.153
CACCCTAA	-0.0623
GCGCTCAA	-0.0234
CATTCTGA	0.166
GGATGGAC	-0.0919
ACAGTTCA	0.0788
CGCCTCCA	-0.134
ATCACTGC	0.229
GTCTGTAA	-0.0205
CCTCCCGA	-0.138
CTACCCGC	0.0472
GAACGATC	-0.11
TCACTGGA	-0.0186
AGTTAAAC	0.133
AACCATGC	0.158
ACGGCCAG	-0.206
AAAGTCAA	0.319
ACCACATG	0.127
CCGGAACA	-0.144
GCTCTGAC	0.0728
GGCCCAAC	-0.249
TAAATGAA	0.0301
ACCCCGTC	-0.135

Sequence	PBM E-score
ACTTAGGC	0.0394
CTGCCAAC	-0.123
CACTCTAG	-0.0744
CCCGGAGG	-0.243
AGGGTTTC	-0.306
CGGTTCCA	-0.193
GCTGTCAC	-0.132
GATCACAC	0.178
CTGAAAAA	0.0477
AGAACGGG	-0.182
ACAACGTA	-0.0564
ACACCGCC	-0.0173
CCTTATTC	-0.264
CGGCCCCG	-0.271
AGGGTTAC	-0.0655
AAATCAAT	0.196
GCAGGCAA	-0.0374
CTATCTAA	-0.00256
CAACCGCG	0.152
AACAAGAT	0.0644
CGATGCAC	-0.246
AGTCCAGG	0.0238
GGCCGTAA	-0.15
ATAGGAGA	-0.153
AGCTAGAT	-0.12

Sequence	PBM E-score
CCCCTTGA	0.0833
TAGGTTCA	0.0589
AAGTGTCG	-0.0503
CGTCGGTC	-0.0819
ATCCACAC	-0.104
TACTTCCA	-0.119
CGCGCTAG	0.00499
GAGCACGA	0.0851
ACTAATCG	0.226
GATGATCA	0.323
GCCATACA	-0.0155
ACTAGGGG	-0.129
TGCCTACA	-0.303
AGGTATAA	0.0395
CGTCGTGC	-0.106
GTGGTTAA	0.222
GCGGGGAC	-0.0668
AATGTAAA	0.00266
GTTAGCTA	-0.0723
ATCAAATG	0.165
GCAGACAC	-0.00677
GTTAAGCA	-0.0802
CCGGAATA	-0.118
AGAATGCA	-0.00775
CGGCATGC	-0.211

Sequence	PBM E-score
ACCTATCA	-0.0853
CACGGCGG	-0.121
CTATACGA	0.126
ACCTAGTA	0.0718
AAGATAAG	0.154
TTCTGCAA	-0.00185
ATACGCAT	-0.0702
ATATGCTC	-0.235
CCTGGTCA	-0.154
CACGCATG	0.081
AGATCGTG	-0.0981
AAGGCCCA	-0.152
AATCATCT	0.453
CATACCGA	-0.0168
CCCCCAGC	-0.0581
AGTCTGCC	0.251
AACCGAAA	0.0664
AAGACTTA	0.33
AGACCTGC	-0.134
GGTCCCAA	-0.14
CGACTGGA	-0.115
CCATATGG	0.0474
AAGCAGGA	-0.0481
TCTGCCAA	-0.0288
GGCCTTAA	-0.122

Sequence	PBM E-score
AATGCGGA	-0.0306
AGACGATA	-0.106
GGGCTGTA	-0.212
TACCGGTA	-0.207
ATGAGAGA	0.111
ATGTGACC	0.109
AACCAAGT	0.0684
AGCCTCTA	-0.216
CCCACCCC	-0.126
CAGAGTGC	0.0507
AGATATTC	-0.12
AATAAACG	-0.133
ACATCTTG	-0.0492
AGGAGCAC	-0.0195
AGGCCAAG	-0.19
CATGTGTA	0.269
CGAATGCA	-0.118
AACAGGGA	-0.0524
ACGGCCTC	-0.163
